# PubChem BioAssay AID602293 (National Center for Advancing Translational Sciences (NCATS), 2012)
# Screen size: about 1,300 compounds; about 30 (2%) were called active. Roughly 10% stayed inconclusive and do not appear here. The call rests on the fitted dose curve; in most records, active means well fitted inhibition curve with a large enough effect; inconclusive means small, poorly fitted or top-dose-only effect; inactive means flat fitted curve, though single readings scatter. The list shows a part of the results.
# Assay: qHTS for antagonists of the Thyroid Stimulation Hormone Receptor: Hit Validation in HTRF Activity in a Luteinizing Hormone Receptor Cell Line
# Settings: LHR-expressing cell line, cAMP HTRF, antagonist mode; series mostly up to 58 µM; activity change, negative = inhibition: at the top concentration
# Method in brief: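 HEK 293 cells stably expressing LH receptor, in DMEM with 10% FCS and 100 uM RO 20-1724, incubated with compound 30 min at room temperature. cAMP measured by competitive HTRF (anti-cAMP cryptate vs cAMP-d2), excitation 330 nm, emissions 615 and 660 nm.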
# On the % scale 0 is the no-effect control and ±100 the full control effect; potency means the concentration at half of the fitted maximal effect.
SMILES,"activity change, negative = inhibition",Potency
O=C(Nc1nnc(S(=O)(=O)N2CCCC2)s1)c1ccccc1F,inactive: 0.295%,
CCN(Cc1ccccc1)c1ccc(/C=C(\C#N)c2ccccn2)cc1,inactive: -6.87%,
CS(=O)c1ccc(-n2c(=O)n(Cc3ccccc3)c(=O)c3[nH]cnc32)cc1 (stereo not drawn),inactive: 0.809%,
CN1C(=O)/C(=C/c2ccc(OCc3ccccc3F)cc2)NC1=S,inactive: 0.405%,
CC(C)(CNC(=O)C1c2ccccc2-c2ccccc21)N1CCOCC1,inactive: 2.91%,
CC(C)Cc1nc2oc3c(Cl)ncnc3c2c2c1CCC2,inactive: -4.6%,
Cc1nc(SCC(=O)N2CCN(c3ccccc3)CC2)n[nH]1,inactive: -1.71%,
Cc1ccc(S(=O)(=O)N2[C@@H](c3ccccc3F)C(C(=O)O)=CC[C@H]2c2ccc(Cl)c(Cl)c2)cc1,inactive: 1.86%,
CCOC(=O)CCCCCC(=O)Nc1ccc2c(c1)CC(=O)N([C@H](C)CO)C[C@@H](C)[C@H](CN(C)Cc1ccc3c(c1)OCO3)O2,inactive: 1.07%,
COC(=O)Cc1c(C)[nH]n(-c2cc(Cl)cc(Cl)c2)c1=O,inactive: -0.389%,
COc1ccc(C(=O)Nc2cccc(NC(=O)c3cccs3)c2)cc1OC,inactive: -0.592%,
CC(=O)N/N=C\c1ccccc1OC/C=C/c1ccccc1,inactive: 2.74%,
CC(C)Cc1ccc(C(C)C(=O)Nc2nccs2)cc1 (stereo not drawn),inactive: -2.8%,
O=C(Nc1ccc(SC(F)F)cc1)c1ccc2c(=O)n3c(nc2c1)CCC3,inactive: -2.9%,
CCOC(=O)C1(CCOc2ccccc2)CCN(Cc2cccc(OC)c2O)CC1,inactive: 2.43%,
O=C(Nc1cc(S(=O)(=O)N2CCCCC2)ccc1Cl)c1ccccc1NS(=O)(=O)c1ccc(F)cc1,inactive: -2.9%,
COc1ccccc1-n1cnc2cc(NS(=O)(=O)c3ccc(Br)cc3)ccc21,inactive: 0.0454%,
O=C(CC1S/C(=N/N=C2CCCCCC2)NC1=O)Nc1ccc(Br)cc1F (stereo not drawn),inactive: 2.65%,
Cc1cc(C(=O)CSc2nc3ccccc3[nH]2)c(C)n1CC1CCCO1 (stereo not drawn),inactive: -6.32%,
CCCC(=O)Nc1cccn(Cc2ccccc2Br)c1=O,inactive: 0.707%,
CC(C)(C)c1ccc(C(=O)CC(Sc2ccc(Cl)cc2)C(=O)O)cc1 (stereo not drawn),inactive: -2.49%,
COc1ccc(-n2nc(C(=O)NCC(=O)Nc3cc(OC)c(OC)c(OC)c3)c3ccccc3c2=O)cc1OC,inactive: -0.232%,
Cc1ncsc1CCOC(=O)C1C2CC3CC(C2)CC1C3 (stereo not drawn),inactive: -1.68%,
CCc1ccc(-c2nnn(CCC(=O)OC)n2)cc1,inactive: 2.98%,
Brc1cc2c(cc1/C=N/Nc1nc(N3CCOCC3)nc(N3CCOCC3)n1)OCO2,inactive: 1.14%,
COc1ccc(-c2cc(-c3ccccc3)c(C#N)c(S(C)=O)n2)cc1 (stereo not drawn),inactive: -1.58%,

SMILES,"activity change, negative = inhibition",Potency
CC(=O)Oc1c(C)cc(Cl)cc1C(=O)Nc1ccc([N+](=O)[O-])cc1Cl,inactive: -5.01%,
CCc1ccc(N/C(SCc2cccc(F)c2)=C(/C#N)C(=O)NCc2ccco2)cc1,inactive: 0.052%,
O=C(OCn1ncc(Cl)c(Cl)c1=O)c1cccc(C(F)(F)F)c1,inactive: -0.844%,
O=C(COc1ccc(Cl)cc1Cl)Nc1ccc(C(=O)Nc2ccccc2C(=O)O)cc1,inactive: -0.211%,
CCc1cc(CNC(=O)CC2C(=O)NCCN2Cc2ccc(-c3ccccc3)cc2)on1 (stereo not drawn),inactive: -0.039%,
Cc1n[nH]c(C)c1S(=O)(=O)N1CCCC(C(=O)N2CCN(c3ccc(Cl)cc3)CC2)C1 (stereo not drawn),inactive: -2.41%,
Cc1ccc(CN2C(=O)c3ccccc3Sc3ccc(C(=O)NCCN4CCOCC4)cc32)cc1,inactive: -0.653%,
COc1ccc(-c2csc(/C(C#N)=C\c3ccc(O)c([N+](=O)[O-])c3)n2)cc1OC,inactive: -2.64%,
Cc1cc(OCC(=O)Nc2cccc(S(=O)(=O)N3CCCC3)c2)ccc1Cl,inactive: -2.78%,
Cc1cc2c(NCCc3ccccc3)ncnc2s1,inactive: 0.102%,
CSc1cccc(NC(=O)CN2C(=O)COc3ccc(S(=O)(=O)N4CCOCC4)cc32)c1,inactive: 1.29%,
O=C1NC(=O)/C(=C/c2ccccc2Oc2ccc(Cl)cc2)S1,inactive: 2.88%,
Cc1csc2ncnc(N3CCN(S(=O)(=O)c4cccc(C(F)(F)F)c4)CC3)c12,inactive: -2.99%,
Cc1ccc(O)c(N=Cc2cc(Cc3ccccc3)cc([N+](=O)[O-])c2O)c1,inactive: 0.607%,
CCN(CC)S(=O)(=O)c1cccc(NC(=O)CNc2cccc(S(=O)(=O)N3CCOCC3)c2)c1,inactive: -1.44%,
O=C(COc1cccc2ccccc12)Nc1ccc(Cl)cc1C(=O)O,inactive: 2.46%,
C[C@@H](NC(=O)[C@@H]1Cc2ccccc2CN1)C(=O)NC1CCCCC1,inactive: 3.6%,
CSc1cccc(NC(=O)C2CCCN(S(=O)(=O)c3ccc(F)cc3)C2)c1 (stereo not drawn),inactive: -7.29%,
Cc1nc2ccccc2n1CCOc1ccccc1,inactive: 2.28%,
Cc1ccc(CNC(=O)CCNC(=O)N2CCn3c2nc2ccccc23)cc1,inactive: 0.978%,
O=C1c2cccnc2C(=O)N1Cc1ccc(S(=O)(=O)N2CCN(c3ccc(Cl)cc3)CC2)cc1,inactive: -0.125%,
CC(=O)N1c2ccc(S(=O)(=O)NCCC(=O)Nc3cccc(Cl)c3)cc2CC1C (stereo not drawn),inactive: 3.16%,
CC1CCN(c2ccccc2NC(=O)c2cc([N+](=O)[O-])ccc2N2CCOCC2)CC1,inactive: -3.69%,
N#Cc1c(SCc2c(Cl)cccc2Cl)nc(N)[nH]c1=S,inactive: 0.676%,
COc1ccc(CCNC(=O)c2ccc(Cl)c(S(=O)(=O)N3CCCCCC3)c2)cc1,inactive: -4.42%,
CSc1nc(-c2ccc(Cl)cc2Cl)[nH]c(=O)c1C#N,inactive: -0.495%,

SMILES,"activity change, negative = inhibition",Potency
CCN(CC)S(=O)(=O)c1cccc(C(=O)Nc2nc3cc4c(cc3s2)OCCO4)c1,inactive: -9.09%,
CCCCCCCC[n+]1cccc2c3ccccc3ccc21,inactive: -5.79%,
Clc1ccccc1CN(Cc1ccccc1)c1ncnc2nc[nH]c12,inactive: 1.01%,
Cc1ccc(CCNC(=O)C2CCN(S(=O)(=O)c3cccc4cccnc34)CC2)cc1,inactive: 0.0832%,
CCCCCCCCCC[n+]1cccc2c3ccccc3ccc21,inactive: -3.44%,
COc1ccc(NC(=O)CSc2nc3[nH]c(=O)[nH]c(=O)c3s2)cc1OC,inactive: 3.36%,
CC1=CCC2C(=O)N(c3ccc(C(=O)Nc4ccccc4Cl)cc3)C(=O)C2C1 (stereo not drawn),inactive: -1.17%,
Cc1cccc(C)c1NC(=O)N1CCC(C(=O)c2ccc(F)cc2)CC1,inactive: 0.977%,
CC(NC(=O)c1cccs1)C(S)c1ccccc1 (stereo not drawn),inactive: 1.27%,
CC1=C(OC(=O)c2ccccc2)C(C)(C)C(c2ccccc2)OC1=O (stereo not drawn),inactive: -1.53%,
COc1ccc(N(CC(=O)Nc2cc(Cl)ccc2OC)S(=O)(=O)c2c(C)noc2C)cc1,inactive: 1.46%,
CC1CCCN(S(=O)(=O)c2csc(C(N)=O)c2)C1 (stereo not drawn),inactive: 0.101%,
O=C(NCc1ccc(F)cc1)c1ccncc1,inactive: -0.065%,
Cc1cccc(CSc2nc3ccccc3c(=O)n2C)c1,inactive: -2.78%,
Cc1ccc(NC(=O)c2ccccc2NS(=O)(=O)c2ccc(F)cc2)cc1S(=O)(=O)N1CCCCC1,inactive: -6.36%,
O=C(c1ccco1)N1CCN(Cc2csc(-c3ccccc3Cl)n2)CC1,inactive: -0.0961%,
COC(=O)c1cc(=O)n(-c2c(Cl)cc(C(F)(F)F)cc2Cl)[nH]1,inactive: -1.05%,
CC(=O)N1CCc2cc(Br)cc(S(=O)(=O)N3CCC(C(=O)O)CC3)c21,inactive: -0.35%,
C=CCOc1c(Cl)cc(CNc2ccc(N(C)C)cc2)cc1OC,inactive: 1.33%,
CC(=O)c1c(O)cc(O)c(C(C)=O)c1O,inactive: 2.57%,
Cc1ccc(C(=O)Nc2nc(-c3ccc(F)cc3)cs2)o1,inactive: -3.58%,
Cc1ccc(-n2c(Cl)c(Cl)nc(Cl)c2=O)cc1,,active: 37.9 µM
Cc1ccc(S(=O)(=O)N2CCN(C(=O)CCn3cncn3)CC2)cc1,inactive: 1.9%,
O=C(OCn1ncc(Cl)c(Cl)c1=O)c1ccccc1Cl,inactive: -5.91%,
CN(C)S(=O)(=O)c1ccc(N2CCN(S(=O)(=O)c3ccc(F)cc3)CC2)c(Cl)c1,inactive: -5.48%,
O=C(Nc1nnc(C2CC2)s1)c1ccc(Cl)c(S(=O)(=O)N2CCc3ccccc3C2)c1,inactive: -1.31%,

SMILES,"activity change, negative = inhibition",Potency
CN(c1cccc(Cl)c1)S(=O)(=O)c1cccc(C(=O)NCc2ccncc2)c1,inactive: -0.575%,
Cc1cc(C)cc(N=C2NC(=O)CS2)c1,inactive: 1.67%,
Cc1ccc(/C=N/n2c(COc3ccccc3)n[nH]c2=S)s1,inactive: 1.61%,
COC(=O)c1ccc(NC(=O)c2ccccc2)o1,inactive: -1.6%,
O=C(Nc1ccccc1C(=O)N1CCN(c2cccc(Cl)c2)CC1)C1=CSCCO1,inactive: -1.81%,
O=C(Nc1ccc2c(c1)CCC2)c1cc(S(=O)(=O)Nc2ccc(F)cc2)c(Cl)cc1Cl,inactive: 1.39%,
CCOC(=O)C1C(c2cc(OC)c(OC)c(OC)c2)NC(=S)NC1(O)C(F)(F)F (stereo not drawn),inactive: -2.18%,
O=C(CCc1ccccc1)N1CCN(Cc2ccc(F)cc2Cl)CC1,inactive: 0.206%,
O=C1c2cccc3c(O)ccc(c23)C(=O)N1c1ccc(Cl)cc1,inactive: -1.55%,
COc1ccc(N2CCN(C(=O)[C@H](C)NC(=O)c3ccccc3Cl)CC2)cc1,inactive: -1.19%,
Cc1ccc(S(=O)(=O)NCCNS(=O)(=O)c2ccc(C)cc2)cc1,inactive: 2.19%,
O=C(O)c1cccc(NC2=C(Cl)C(=O)c3ccccc3C2=O)c1,inactive: -2.21%,
CC(=O)c1cccc(NS(=O)(=O)c2cc(-c3cnc(C4CC4)o3)ccc2C)c1,inactive: 1.36%,
Cc1ccc(F)cc1CNC(=O)c1cc(COc2ccc3ncccc3c2)on1,inactive: -3.93%,
CC(C)(C)n1ncc2c(=O)n(Cc3ccccc3Br)cnc21,inactive: -3.44%,
CCOC(=O)c1cc(C(=O)Nc2sc3c(c2C#N)CCCC3)nn1C,inactive: -2.35%,
CC(C)c1ccc(OCC(=O)Nc2cccc3c2CCCC3)cc1,inactive: 0.431%,
O=C(NCCc1ccc(Cl)cc1Cl)c1cc([N+](=O)[O-])c[nH]c1=O,inactive: 1.72%,
O=C(COc1ccc(Cl)cc1)NCc1nnc(SCC(=O)NC2CCCCC2)o1,inactive: 2.48%,
CN(C)S(=O)(=O)c1cccc(-c2nnc(SCc3ccc4c(c3)OCCO4)o2)c1,inactive: -1.33%,
Cc1ccc(OCCSc2ncccn2)c(C)c1,inactive: 1.24%,
CCN(C(=O)CSc1nnc(CNc2cccc(OC)c2)n1C1CCCCC1)C1CCS(=O)(=O)C1 (stereo not drawn),inactive: 2.48%,
COc1ccc(-c2csc3ncn(Cc4ccccc4)c(=O)c23)cc1,inactive: 1.6%,
CCOC(=O)c1c(NC(=O)/C=C/C(=O)O)sc(C)c1-c1ccc(C)c(C)c1,inactive: -0.469%,
O=C1c2cccc3c([N+](=O)[O-])ccc(c23)C(=O)N1c1ccc(Cl)cn1,inactive: -5.71%,
